# Results: the supplement of paper PMC12217912
# The list shows a part of the results. The full chains were built here from the parent and the listed change. Values near 0.05 are background.
# B1: TEV protease; numbered along this chain (parent)
# chain: MGESLFKGPRDYNPISSSICHLTNESDGHTTSLYGIGFGPFIITNKHLFRRNNGTLVVQSLHGVFKVKDTTTLQQHLVDGRDMIIIRMPKDFPPFPQKLKFREPQREERICLVTTNFQTKSMSSMVSDTSCTFPSGDGIFWKHWIQTKDGQCGSPLVSTRDGFIVGIHSASNFTNTNNYFTSVPKNFMELLTNQEAQQWVSGWRLNADSVLWGGHKVFMVKPEEPFQPVKEATQL
# Variants of: B1
# Experiment: raw area under fraction-flipped curve 0-4 h after induction (AUC4h, not background-subtracted), DNA-recorder readout of cleavage of the substrate (dimensionless); higher = more cleavage of the substrate by the protease variant
# Conditions: temperature: 34 °C; time window: 0-4 h after rhamnose induction
# Experimental: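 In vivo DNA recorder in E. coli TOP10(DE3) ΔrhaA at 34 °C. Each TEVp single-site mutant (parent TEVp 0) is paired with a single-site variant of the 7-mer TEVs (canonical ENLYFQ|S). The substrate sits between flexible linkers in a Bxb1-sfGFP-TEVs-SsrA fusion, so cleavage stabilises Bxb1 and speeds flipping of a recombination array, read by NGS. The value is the raw area under the fraction-flipped curve over 0-4 h after rhamnose induction (AUC4h), with ≥20 reads per time point. It is not background-subtracted; inactive controls average about 0.047.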
# 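Further: Bxb1 expression induced with 0.2% (w/v) L-rhamnose at OD600 near 0.5, cultures sampled hourly, flipped fraction per protease–substrate barcode pair counted by paired-end Illumina sequencing.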
Variant,area with substrate ENLYDQS,area with substrate ENLYEQS,area with substrate ENLYGQS,area with substrate ENLYKQS,area with substrate ENLYLQS,area with substrate ENLYMQS,area with substrate ENLYNQS,area with substrate ENLYPQS,area with substrate ENLYRQS,area with substrate ENLYTQS,area with substrate ENLYVQS,area with substrate ENLYWQS,area with substrate ENLYYQS,area with substrate ENLYHQS,area with substrate ENLYSQS,area with substrate ENLYIQS,area with substrate ENLYQQS
Q227P,0.059,0.0506,0.0774,0.0327,0.0915,0.0849,0.0698,0.0715,0.0554,0.0834,0.125,0.0832,0.0603,–,–,–,–
C20A,0.0567,0.0818,0.0744,0.023,0.0576,–,0.0684,0.0811,0.0527,0.0638,0.07,0.076,–,0.0665,0.103,–,–
G80H,0.0651,0.0593,0.0712,0.022,–,–,0.0705,0.068,0.0409,0.0514,0.119,0.0816,–,–,–,0.117,0.0651
I85F,0.0701,0.0513,–,0.0585,–,–,–,–,–,0.06,0.107,0.0778,–,0.0525,–,–,0.057
H29W,0.0587,–,0.0683,0.0481,–,0.0944,0.0671,0.0711,–,0.0896,0.112,0.0752,–,0.0722,0.0712,–,–
H29Y,0.0582,0.064,0.0952,0.0592,0.175,0.0984,0.059,0.0728,–,0.105,0.119,0.0913,0.0636,0.0779,0.0853,0.138,0.0651
T132S,0.0647,–,0.0415,–,0.0692,–,0.0637,0.0744,–,–,–,–,–,–,–,–,–
D11K,0.0424,0.0589,0.0737,0.0584,0.0738,0.0875,0.076,0.0779,0.0518,–,0.0993,0.0732,0.0715,0.0412,0.0983,0.156,–
L99S,0.031,0.0681,–,0.0665,–,–,0.0529,0.0723,0.047,0.0619,–,–,0.0608,0.069,0.0784,–,–
V126G,0.0703,0.134,0.0738,–,–,0.0877,0.0381,0.0688,0.0476,0.0811,0.146,0.0998,–,0.0785,0.0753,–,0.0488
F95S,0.062,0.0593,0.0806,0.0396,–,0.0749,0.0622,0.0695,–,0.0815,0.0701,0.0763,0.0514,0.0592,–,0.106,–
F140P,0.0582,0.0543,0.0548,0.047,–,–,0.0522,0.0606,0.0464,–,0.0615,0.0453,0.069,0.0061,0.055,0.091,–
W203R,0.0706,0.0444,0.0709,–,–,0.064,0.0593,0.0613,0.0572,–,–,0.083,–,0.0671,–,–,–
L77T,0.0721,0.0676,–,0.0545,0.0672,0.0599,0.0913,–,0.0645,0.0698,0.0741,–,–,0.0718,0.0693,0.0829,–
V57Y,0.0552,0.0578,0.08,0.066,0.0928,0.0352,0.0631,0.0667,0.0628,–,0.145,–,0.0642,0.0628,0.0785,–,0.0733
L205N,0.0816,0.0589,0.0318,–,–,–,0.0872,–,–,–,–,0.0551,–,–,–,0.0518,–
D149Q,0.0661,–,0.0863,0.0243,–,–,–,0.0646,0.0672,0.0607,0.106,0.0698,–,0.0584,–,0.127,0.0563
E195C,0.0637,0.067,0.0637,0.0533,–,0.0688,0.0893,–,0.0589,0.0796,0.119,–,0.0583,0.0719,0.0767,–,0.059
I42W,0.0495,0.0479,0.0817,0.0321,–,0.0687,0.0582,0.0684,0.0497,0.06,–,0.0603,0.0711,0.0548,0.0553,0.0858,0.04
L33Q,0.0636,0.065,0.0681,0.0544,0.064,0.0752,0.074,0.0603,0.0617,–,0.0921,0.0539,0.0581,0.0667,0.0659,0.0716,0.0691
L5Q,0.0692,0.0753,0.074,0.0429,0.0969,0.0851,0.0627,0.0853,–,0.105,0.163,0.0768,0.0736,0.0674,0.0694,–,0.0492
P225R,0.0682,0.0665,0.0603,0.0376,–,0.084,0.0576,0.073,–,0.0753,0.0782,0.073,0.0672,0.0755,0.0768,0.113,0.0602
N53A,0.0539,0.0772,0.0542,0.0671,–,–,0.0632,0.06,0.068,0.0684,–,0.0787,0.0615,0.0617,0.0507,0.107,0.0512
R204N,0.0947,0.0642,0.0643,0.0626,–,0.0945,0.0642,–,0.065,0.0822,0.115,0.0777,–,0.0753,0.0377,0.115,0.0593
R81I,0.0442,0.0475,0.0574,0.0369,–,0.0991,0.058,0.0716,–,–,0.0609,–,–,0.0647,0.0424,–,0.0612
R51M,0.0587,0.0574,–,0.0556,–,–,–,0.0758,–,0.0859,0.114,–,–,0.0717,0.0728,–,0.0885
E231G,0.0584,0.0727,0.0633,0.0631,–,0.0767,0.0558,0.0905,–,–,0.126,0.0909,0.067,0.0726,0.0609,0.137,0.114
T129P,0.0632,0.0963,0.0623,0.0554,0.0837,0.0778,0.08,0.0841,0.0644,–,–,0.0765,–,0.0751,0.0695,0.131,0.0407
